Data published in the RNAGym collection of RNA variant scans (doi:10.1073/pnas.2313332121).
This sample is rich in variants without activity.

B1: TPR 5TU (parent)
chain: GGAUCUUCUCGAUCUAACAAAAAAGACAAAUCUGCCACAAAGCUUGAGAGCAUCUUCGGAUGCAGAGGCGGCAGCCUUCGGUGGCGCGAUAGCGCCAACGUUCUCAACUAUGACACGCAAAACGCGUGCUCCGUUGAAUGGAGUUUAUCAUG

Variants of: B1
Assay: polymerase ribozyme fitness, log enrichment relative to wild type (log ratio); higher = more active; in vitro selection for triplet polymerase activity
How it was run: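 In triplicate, a single round of in vitro selection was run on each mutant library, PCR-built and transcribed, covering one subunit of a heterodimeric triplet polymerase ribozyme. Frozen incubation at −7 °C followed annealing with a biotinylated primer, partner subunit and triplets, and extended constructs were then gel-excised, streptavidin-captured and taken through RT-PCR. Fitness is the logarithm of genotype enrichment over wild-type enrichment, from inverse-variance-weighted replicate averages of Illumina-sequenced inputs and outputs. […] only genotypes with ≥10 input reads and ≥1 read per output were kept.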

Variant | polymerase ribozyme fitness (log ratio)
A16G C32G A41U G80C C99U A110U U127A G143A | ≤ -4.2
A16G C32U U33G A66C U101G U109G A121C U148C C149G | ≤ -4.2
A16G C35A | -3.53
A16G C35A C76G C116U A120C U139C | ≤ -4.2
A16G C35G C43A A47C C85G A97G C125G A138U | ≤ -4.2
A16G C36G | -4.12
A16G C38G G50A U102C A106U | ≤ -4.2
A16G C38U G50C U55A C57U C85G A120G A137U G143C | ≤ -4.2
A16G C38U U44A A89C U101G A122C | ≤ -4.2
A16G C38U U82A C96G | -1
A16G C43G C57U G84A C85A A91C U127C | ≤ -4.2
A16G C43U G71C C85U C103G C105U G141A | ≤ -4.2
A16G C43U U45A C75U C93G U102A | ≤ -4.2
A16G C51U C85G U127G A138U | ≤ -4.2
A16G C51U C95G C96A G141U A147C | ≤ -4.2
A16G C54U G92C C96A G112U | ≤ -4.2
A16G C57G G86A C96U C99U G117A A137U | ≤ -4.2
A16G C69U C85U C131G A142U | ≤ -4.2
A16G C69U C85U C131G U146G | ≤ -4.2
A16G C76A G86A A89U G133C U145G | ≤ -4.2
A16G C87A G136A | ≤ -4.2

Variant | polymerase ribozyme fitness (log ratio)
A16G G25C C57U G74A C108G C118A G143C | ≤ -4.2
A16G G25C U55A C76A C87A C116G U139G U148A | ≤ -4.2
A16G G25U A41C G46A C69U G133C | ≤ -4.2
A16G G34A U90G | ≤ -4.2
A16G G34C U53G C87A C93A C105U | ≤ -4.2
A16G G46A C54A U144A | ≤ -4.2
A16G G46C A73G C87A C116U A150G | ≤ -4.2
A16G G46U U55A C85A C105A | -4.14
A16G G46U U61A G68U | ≤ -4.2
A16G G50C G59C G88U A89U G152U | ≤ -4.2
A16G G58A G92U G133A | ≤ -4.2
A16G G58U U77G C93U A97U U102G G126U C131A | ≤ -4.2
A16G G68U C76A U77C C85U | ≤ -4.2
A16G G70A C93A | ≤ -4.2
A16G G80A | -0.775
A16G G80C G81A A97G U102C G136C C149U | ≤ -4.2
A16G G84A C85U C95A A107C C123A | ≤ -4.2
A16G G86U | -2.72
A16G G94A U102G G140U | ≤ -4.2
A16G G94A U104A | -0.709
A16G G94U C95A U134G | -3.52

Variant | polymerase ribozyme fitness (log ratio)
A16G U31A A39U C132U G136A | -3.4
A16G U31C C51U U53G C125A G140C | ≤ -4.2
A16G U33A C36A U56A C76A C85A A119G | ≤ -4.2
A16G U33A C54U G58A G81U C95G A98U | ≤ -4.2
A16G U33G C95G | ≤ -4.2
A16G U33G U55A C95U | -3.89
A16G U33G U90G C114U G117U A138C A150G | ≤ -4.2
A16G U44A U77A C85G A122U U134C U146G | ≤ -4.2
A16G U53A G58A C93U A97C C125G U130A | ≤ -4.2
A16G U56A G86U C103G U135A G152A | ≤ -4.2
A16G U77C G86C G117U | ≤ -4.2
A16G U82G G100C A142G | ≤ -4.2
A16U A17C A30U U33C C35A G71A U146G | ≤ -4.2
A16U A17G A20G C35A G59C A66G A91U C114U | ≤ -4.2
A16U A17G G74C C95U G143C U151G | ≤ -4.2
A16U A17U A23U G46C G92A A106G C125G U135A | ≤ -4.2
A16U A17U G48U U104G G124A C131G | -4.15
A16U A17U U61G G84U C103G G136U A137U U145G | ≤ -4.2
A16U A19C A30U G86U C95G | ≤ -4.2
A16U A19C A40C C76A G88A U135G | ≤ -4.2
A16U A19C C57U G71C U134G G141U | ≤ -4.2

Variant | polymerase ribozyme fitness (log ratio)
A16U A19C U61G G80C C87U A98G G133C G152U | ≤ -4.2
A16U A19U A30C C85U C129G | ≤ -4.2
A16U A19U A39U U61A A113G G128A G141C | ≤ -4.2
A16U A20C A41U C87G A98G | ≤ -4.2
A16U A20C G83C C96A A107G | ≤ -4.2
A16U A20G C54G C93G U104G A106U A137U A142C | ≤ -4.2
A16U A20U G25C C93U A98G A121C G133C | ≤ -4.2
A16U A21G A23G U104G | ≤ -4.2
A16U A21G A30U G48C | ≤ -4.2
A16U A21U A24U C27G C79A C93U | ≤ -4.2
A16U A21U C27A U44G A60G G74A U78C A142C | ≤ -4.2
A16U A22C A30G A40U U53A A73G A107U U134C A147C U148A A150U | ≤ -4.2
A16U A22C G59A C118A | -3.09
A16U A22C U53A G84C A122G U127A G140U | ≤ -4.2
A16U A22U C51A U77C A91U C99G A107U A115C | ≤ -4.2
A16U A22U G46A C85G C118G | ≤ -4.2
A16U A22U U44C U53A C87A A89G | ≤ -4.2
A16U A23C A40G U55A U61A C87A C103G U109G C114U | ≤ -4.2
A16U A23G C57U G84A C114U G136C U146G | ≤ -4.2
A16U A23G U148A | ≤ -4.2
A16U A23U A29G C93A | ≤ -4.2
